# Measurements from PubChem BioAssay (NCI).
#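 Following 48 hours of exposure in 96-well plates, responses at five concentrations were used to interpolate endpoints linearly. The concentration for 50% growth inhibition is given as GI50.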 Not every entry of the source has a single result; some have several. Only these are listed. The source may hold further records. For part of these data: Records of one sample usually come from different ranges of test concentrations, which the source does not state; some values may only mark the edge of a range. Records carry a tag for their origin. Letters count within one entry. For part of these data: The values listed for one entry repeat one measurement (runs, samples, wells, individuals or studies).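 TGI denotes the concentration required for complete inhibition of growth.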
# Key:
# Experiment in all cases: inhibition of tumour cell growth, NCI panel, 48 h
# 786-0 renal = system: 786-0 renal
# A498 renal = system: A498 renal
# A549 NSCLC = system: A549 NSCLC
# ACHN renal = system: ACHN renal
# CAKI-1 renal = system: CAKI-1 renal
# CCRF-CEM leukemia = system: CCRF-CEM leukemia
# COLO 205 colon = system: COLO 205 colon
# DLD-1 colon = system: DLD-1 colon
# DMS 114 small cell lung = system: DMS 114 small cell lung
# DMS 273 small cell lung = system: DMS 273 small cell lung
# DU-145 prostate = system: DU-145 prostate
# HCC-2998 colon = system: HCC-2998 colon
# HCT-116 colon = system: HCT-116 colon
# HCT-15 colon = system: HCT-15 colon
# HL-60(TB) leukemia = system: HL-60(TB) leukemia
# HOP-62 NSCLC = system: HOP-62 NSCLC
# HOP-92 NSCLC = system: HOP-92 NSCLC
# K-562 leukemia = system: K-562 leukemia
# LOX IMVI melanoma = system: LOX IMVI melanoma
# M14 melanoma = system: M14 melanoma
# MALME-3M melanoma = system: MALME-3M melanoma
# MCF7 breast = system: MCF7 breast
# MDA-MB-231 breast = system: MDA-MB-231 breast
# MDA-N = system: MDA-N
# MOLT-4 leukemia = system: MOLT-4 leukemia
smiles,measurement,setting,value
Nc1ncn(C2OC(CO)C(O)C2O)c(=O)n1 (stereo not drawn),TGI,786-0 renal,"> 250 µM [sample A, mean of 4 tests] and 32.4 µM, 58 µM [sample B, mean of 3 tests] and 12.3 µM [sample B, mean of 6 tests]"
same,TGI,A498 renal,"> 250 µM [sample A, mean of 14 tests] and 7.81 µM [sample B, mean of 3 tests] and 5.44 µM [sample B, mean of 5 tests] and 5.2 µM [sample B, mean of 9 tests]"
same,TGI,A549 NSCLC,"> 210 µM [sample A, mean of 15 tests] and 22.4 µM [sample B, mean of 10 tests] and 36.1 µM [sample B, mean of 3 tests] and 11.8 µM [sample B, mean of 6 tests]"
same,TGI,ACHN renal,"225 µM [sample A, mean of 4 tests] and 16 µM [sample B, mean of 3 tests] and 3.85 µM [sample B, mean of 4 tests] and 8.56 µM [sample B, mean of 6 tests]"
same,GI50,CAKI-1 renal,"14.4 µM [sample A, 1 test] and 55.6 µM [sample A, mean of 12 tests] and 385 nM [sample B, mean of 3 tests] and 271 nM, 570 nM [sample B, mean of 6 tests]"
same,TGI,CAKI-1 renal,"> 206 µM [sample A, mean of 12 tests] and 5.43 µM [sample B, mean of 3 tests] and 3.67 µM, 2.31 µM [sample B, mean of 6 tests]"
same,GI50,CCRF-CEM leukemia,"285 nM [sample A, 1 test] and 238 nM [sample A, mean of 15 tests] and 1.19 µM [sample B, mean of 3 tests] and 1.18 µM [sample B, mean of 5 tests] and 1.16 µM [sample B, mean of 6 tests]"
same,TGI,CCRF-CEM leukemia,"33.3 µM [sample A, mean of 15 tests] and > 71.2 µM [sample B, mean of 3 tests] and 69.3 µM [sample B, mean of 5 tests] and 33 µM [sample B, mean of 6 tests]"
same,TGI,COLO 205 colon,"> 250 µM [sample A, mean of 13 tests] and 6.51 µM [sample B, mean of 2 tests] and 4.97 µM [sample B, mean of 4 tests] and 2.07 µM [sample B, mean of 8 tests]"
same,GI50,DLD-1 colon,"> 243 µM [sample A, mean of 8 tests] and 795 nM [sample B, mean of 5 tests]"
same,TGI,DLD-1 colon,"> 250 µM [sample A, mean of 8 tests] and 24 µM [sample B, mean of 5 tests]"
same,TGI,DMS 114 small cell lung,"> 220 µM [sample A, mean of 9 tests] and 12.5 µM [sample B, mean of 5 tests]"
same,TGI,DMS 273 small cell lung,"> 250 µM [sample A, mean of 7 tests] and 6.95 µM [sample B, mean of 4 tests]"
same,GI50,DU-145 prostate,"247 µM [sample A, mean of 4 tests] and 283 nM [sample B, mean of 2 tests] and 805 nM [sample B, mean of 3 tests] and 495 nM [sample B, mean of 5 tests]"
same,TGI,DU-145 prostate,"> 250 µM [sample A, mean of 4 tests] and 7.55 µM [sample B, mean of 2 tests] and 10.9 µM [sample B, mean of 3 tests] and 4.97 µM [sample B, mean of 5 tests]"
same,GI50,HCC-2998 colon,"212 µM [sample A, mean of 8 tests] and 1.4 µM [sample B, mean of 3 tests] and 417 nM [sample B, mean of 6 tests] and 511 nM [sample B, mean of 7 tests]"
same,TGI,HCC-2998 colon,"> 250 µM [sample A, mean of 8 tests] and 6.97 µM [sample B, mean of 3 tests] and 2.26 µM [sample B, mean of 6 tests] and 2.5 µM [sample B, mean of 7 tests]"
same,GI50,HCT-116 colon,"18.1 µM [sample A, 1 test] and 19 µM [sample A, mean of 15 tests] and 459 nM [sample B, 1 test] and 242 nM, 544 nM [sample B, mean of 4 tests]"
same,TGI,HCT-116 colon,"> 250 µM [sample A, mean of 15 tests] and 1.98 µM, 1.83 µM [sample B, mean of 4 tests]"
same,TGI,HCT-15 colon,"> 250 µM [sample A, mean of 14 tests] and > 55.5 µM [sample B, mean of 3 tests] and 73.2 µM [sample B, mean of 5 tests] and 13.3 µM [sample B, mean of 7 tests]"
same,TGI,HL-60(TB) leukemia,"> 198 µM [sample A, mean of 11 tests] and 4.54 µM [sample B, mean of 3 tests] and 15.9 µM [sample B, mean of 4 tests] and 1.4 µM [sample B, mean of 7 tests]"
same,TGI,HOP-62 NSCLC,"128 µM [sample A, mean of 12 tests] and 8.99 µM [sample B, mean of 3 tests] and 3.44 µM [sample B, mean of 6 tests] and 2.09 µM [sample B, mean of 7 tests]"
same,TGI,HOP-92 NSCLC,"> 99.5 µM [sample A, mean of 10 tests] and 7.3 µM [sample B, mean of 3 tests] and 19.1 µM [sample B, mean of 5 tests] and 11.2 µM [sample B, mean of 7 tests]"
same,GI50,K-562 leukemia,"165 µM [sample A, mean of 13 tests] and 559 nM [sample B, mean of 10 tests] and 426 nM [sample B, mean of 3 tests] and 669 nM [sample B, mean of 5 tests]"
same,TGI,K-562 leukemia,"> 209 µM [sample A, mean of 13 tests] and 17.2 µM [sample B, mean of 10 tests] and > 52.9 µM [sample B, mean of 3 tests] and 64.7 µM [sample B, mean of 5 tests]"
same,GI50,LOX IMVI melanoma,"56.6 µM [sample A, 1 test] and 17.6 µM [sample A, mean of 13 tests] and 373 nM [sample B, mean of 3 tests] and 329 nM [sample B, mean of 6 tests] and 492 nM [sample B, mean of 9 tests]"
same,TGI,LOX IMVI melanoma,"> 206 µM [sample A, mean of 13 tests] and 1.89 µM [sample B, mean of 3 tests] and 2.23 µM [sample B, mean of 6 tests] and 2.41 µM [sample B, mean of 9 tests]"
same,TGI,M14 melanoma,"> 250 µM [sample A, mean of 4 tests] and 6.95 µM [sample B, mean of 3 tests] and 3.4 µM [sample B, mean of 4 tests] and 5.98 µM [sample B, mean of 6 tests]"
same,TGI,MALME-3M melanoma,"173 µM [sample A, mean of 14 tests] and 8.9 µM [sample B, mean of 3 tests] and 14.3 µM [sample B, mean of 6 tests] and 6.07 µM [sample B, mean of 9 tests]"
same,TGI,MCF7 breast,"> 250 µM [sample A, mean of 12 tests] and > 69.5 µM [sample B, mean of 3 tests] and 56.6 µM [sample B, mean of 4 tests] and 21.9 µM [sample B, mean of 8 tests]"
same,TGI,MDA-MB-231 breast,"> 250 µM [sample A, mean of 4 tests] and 9.58 µM [sample B, mean of 3 tests] and 4.49 µM, 2.11 µM [sample B, mean of 4 tests]"
same,TGI,MDA-N,"18.5 µM [sample A, 1 test] and > 250 µM [sample A, mean of 3 tests] and 9.28 µM, 5.67 µM [sample B, mean of 4 tests]"
same,TGI,MOLT-4 leukemia,"51.2 µM [sample A] and 12.2 µM, 28.3 µM, 5.8 µM [sample B]"
